Assay in all cases: co-IP
In one experiment the target is CBP-Flag (UniProt Q92793).
In a further experiment the target is p300-Myc (UniProt Q09472).
In the next experiment the target is T1, IRF7-Flag (UniProt Q92985).
T1 sequence: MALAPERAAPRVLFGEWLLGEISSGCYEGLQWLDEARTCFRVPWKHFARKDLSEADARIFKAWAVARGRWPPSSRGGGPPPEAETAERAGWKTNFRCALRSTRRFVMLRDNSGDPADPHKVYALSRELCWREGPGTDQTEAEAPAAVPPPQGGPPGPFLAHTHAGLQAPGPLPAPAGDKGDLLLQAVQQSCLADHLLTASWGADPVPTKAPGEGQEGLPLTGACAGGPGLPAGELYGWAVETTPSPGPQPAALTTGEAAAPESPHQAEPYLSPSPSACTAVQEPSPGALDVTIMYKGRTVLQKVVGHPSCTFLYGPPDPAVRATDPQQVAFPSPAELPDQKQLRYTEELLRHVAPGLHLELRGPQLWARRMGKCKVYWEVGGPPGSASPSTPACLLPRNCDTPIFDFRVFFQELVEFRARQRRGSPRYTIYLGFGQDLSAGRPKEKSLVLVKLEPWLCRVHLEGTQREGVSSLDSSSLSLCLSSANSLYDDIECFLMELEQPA

Protein sequences, listed by entry. Tags and fused reporters are not part of them.
UniProt Q92793: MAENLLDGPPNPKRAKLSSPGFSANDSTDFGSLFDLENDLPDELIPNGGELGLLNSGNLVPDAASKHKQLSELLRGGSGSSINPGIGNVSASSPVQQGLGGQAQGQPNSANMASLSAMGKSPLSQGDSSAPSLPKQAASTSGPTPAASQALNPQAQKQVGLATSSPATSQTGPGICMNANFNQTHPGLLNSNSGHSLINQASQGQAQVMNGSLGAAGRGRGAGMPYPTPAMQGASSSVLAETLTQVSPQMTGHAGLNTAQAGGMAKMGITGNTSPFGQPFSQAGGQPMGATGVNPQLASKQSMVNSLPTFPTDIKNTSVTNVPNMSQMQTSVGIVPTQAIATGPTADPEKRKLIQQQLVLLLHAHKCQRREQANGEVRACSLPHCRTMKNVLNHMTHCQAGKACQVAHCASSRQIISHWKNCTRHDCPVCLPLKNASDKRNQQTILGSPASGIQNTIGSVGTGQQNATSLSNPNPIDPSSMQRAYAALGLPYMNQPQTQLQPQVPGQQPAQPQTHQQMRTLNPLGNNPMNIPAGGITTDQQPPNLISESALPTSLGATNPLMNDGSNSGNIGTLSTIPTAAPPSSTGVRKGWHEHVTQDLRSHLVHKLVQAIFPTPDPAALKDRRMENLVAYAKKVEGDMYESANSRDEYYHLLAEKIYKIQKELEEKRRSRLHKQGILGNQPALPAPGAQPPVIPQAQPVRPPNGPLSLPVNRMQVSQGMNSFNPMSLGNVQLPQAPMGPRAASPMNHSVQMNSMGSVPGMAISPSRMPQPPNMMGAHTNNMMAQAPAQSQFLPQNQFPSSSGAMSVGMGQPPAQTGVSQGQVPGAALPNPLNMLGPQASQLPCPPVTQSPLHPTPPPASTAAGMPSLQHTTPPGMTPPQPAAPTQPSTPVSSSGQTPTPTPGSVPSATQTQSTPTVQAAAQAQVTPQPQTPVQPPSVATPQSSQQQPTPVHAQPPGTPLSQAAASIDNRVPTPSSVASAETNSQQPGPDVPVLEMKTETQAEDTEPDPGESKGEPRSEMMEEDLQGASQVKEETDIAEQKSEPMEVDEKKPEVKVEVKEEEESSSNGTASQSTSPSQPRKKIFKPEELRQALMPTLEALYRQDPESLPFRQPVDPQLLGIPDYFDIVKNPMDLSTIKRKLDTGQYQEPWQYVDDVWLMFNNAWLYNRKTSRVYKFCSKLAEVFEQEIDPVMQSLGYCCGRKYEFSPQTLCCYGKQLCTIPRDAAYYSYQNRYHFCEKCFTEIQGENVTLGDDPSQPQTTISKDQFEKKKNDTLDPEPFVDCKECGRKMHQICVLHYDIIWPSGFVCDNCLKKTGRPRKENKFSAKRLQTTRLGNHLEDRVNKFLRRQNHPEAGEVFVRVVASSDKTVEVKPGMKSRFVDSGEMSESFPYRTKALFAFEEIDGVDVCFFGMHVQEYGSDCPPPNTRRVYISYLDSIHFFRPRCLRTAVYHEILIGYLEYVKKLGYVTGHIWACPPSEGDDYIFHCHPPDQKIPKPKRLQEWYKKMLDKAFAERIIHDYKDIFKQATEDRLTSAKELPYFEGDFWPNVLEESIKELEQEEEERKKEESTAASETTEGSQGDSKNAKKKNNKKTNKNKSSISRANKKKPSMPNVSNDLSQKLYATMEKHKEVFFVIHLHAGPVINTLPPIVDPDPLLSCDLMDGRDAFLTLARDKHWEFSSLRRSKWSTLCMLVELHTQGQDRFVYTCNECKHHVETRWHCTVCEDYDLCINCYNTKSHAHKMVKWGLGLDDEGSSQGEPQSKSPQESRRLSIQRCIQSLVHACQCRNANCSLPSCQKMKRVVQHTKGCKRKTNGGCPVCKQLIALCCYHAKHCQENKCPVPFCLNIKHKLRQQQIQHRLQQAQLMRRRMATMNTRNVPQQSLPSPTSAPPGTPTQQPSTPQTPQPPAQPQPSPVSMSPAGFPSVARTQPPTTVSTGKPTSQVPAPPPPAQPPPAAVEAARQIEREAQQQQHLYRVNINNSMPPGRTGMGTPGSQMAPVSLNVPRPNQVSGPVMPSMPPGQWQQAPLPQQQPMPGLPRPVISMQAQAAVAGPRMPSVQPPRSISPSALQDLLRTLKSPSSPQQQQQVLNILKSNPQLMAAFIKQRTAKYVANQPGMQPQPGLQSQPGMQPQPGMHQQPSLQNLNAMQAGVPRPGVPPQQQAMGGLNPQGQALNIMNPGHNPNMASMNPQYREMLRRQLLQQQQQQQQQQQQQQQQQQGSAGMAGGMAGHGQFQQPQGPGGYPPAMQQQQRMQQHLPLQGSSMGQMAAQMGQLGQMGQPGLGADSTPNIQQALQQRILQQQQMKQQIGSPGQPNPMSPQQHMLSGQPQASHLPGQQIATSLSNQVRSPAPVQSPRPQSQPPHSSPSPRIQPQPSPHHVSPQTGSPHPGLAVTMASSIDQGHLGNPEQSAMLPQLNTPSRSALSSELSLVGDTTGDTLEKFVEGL
UniProt Q09472: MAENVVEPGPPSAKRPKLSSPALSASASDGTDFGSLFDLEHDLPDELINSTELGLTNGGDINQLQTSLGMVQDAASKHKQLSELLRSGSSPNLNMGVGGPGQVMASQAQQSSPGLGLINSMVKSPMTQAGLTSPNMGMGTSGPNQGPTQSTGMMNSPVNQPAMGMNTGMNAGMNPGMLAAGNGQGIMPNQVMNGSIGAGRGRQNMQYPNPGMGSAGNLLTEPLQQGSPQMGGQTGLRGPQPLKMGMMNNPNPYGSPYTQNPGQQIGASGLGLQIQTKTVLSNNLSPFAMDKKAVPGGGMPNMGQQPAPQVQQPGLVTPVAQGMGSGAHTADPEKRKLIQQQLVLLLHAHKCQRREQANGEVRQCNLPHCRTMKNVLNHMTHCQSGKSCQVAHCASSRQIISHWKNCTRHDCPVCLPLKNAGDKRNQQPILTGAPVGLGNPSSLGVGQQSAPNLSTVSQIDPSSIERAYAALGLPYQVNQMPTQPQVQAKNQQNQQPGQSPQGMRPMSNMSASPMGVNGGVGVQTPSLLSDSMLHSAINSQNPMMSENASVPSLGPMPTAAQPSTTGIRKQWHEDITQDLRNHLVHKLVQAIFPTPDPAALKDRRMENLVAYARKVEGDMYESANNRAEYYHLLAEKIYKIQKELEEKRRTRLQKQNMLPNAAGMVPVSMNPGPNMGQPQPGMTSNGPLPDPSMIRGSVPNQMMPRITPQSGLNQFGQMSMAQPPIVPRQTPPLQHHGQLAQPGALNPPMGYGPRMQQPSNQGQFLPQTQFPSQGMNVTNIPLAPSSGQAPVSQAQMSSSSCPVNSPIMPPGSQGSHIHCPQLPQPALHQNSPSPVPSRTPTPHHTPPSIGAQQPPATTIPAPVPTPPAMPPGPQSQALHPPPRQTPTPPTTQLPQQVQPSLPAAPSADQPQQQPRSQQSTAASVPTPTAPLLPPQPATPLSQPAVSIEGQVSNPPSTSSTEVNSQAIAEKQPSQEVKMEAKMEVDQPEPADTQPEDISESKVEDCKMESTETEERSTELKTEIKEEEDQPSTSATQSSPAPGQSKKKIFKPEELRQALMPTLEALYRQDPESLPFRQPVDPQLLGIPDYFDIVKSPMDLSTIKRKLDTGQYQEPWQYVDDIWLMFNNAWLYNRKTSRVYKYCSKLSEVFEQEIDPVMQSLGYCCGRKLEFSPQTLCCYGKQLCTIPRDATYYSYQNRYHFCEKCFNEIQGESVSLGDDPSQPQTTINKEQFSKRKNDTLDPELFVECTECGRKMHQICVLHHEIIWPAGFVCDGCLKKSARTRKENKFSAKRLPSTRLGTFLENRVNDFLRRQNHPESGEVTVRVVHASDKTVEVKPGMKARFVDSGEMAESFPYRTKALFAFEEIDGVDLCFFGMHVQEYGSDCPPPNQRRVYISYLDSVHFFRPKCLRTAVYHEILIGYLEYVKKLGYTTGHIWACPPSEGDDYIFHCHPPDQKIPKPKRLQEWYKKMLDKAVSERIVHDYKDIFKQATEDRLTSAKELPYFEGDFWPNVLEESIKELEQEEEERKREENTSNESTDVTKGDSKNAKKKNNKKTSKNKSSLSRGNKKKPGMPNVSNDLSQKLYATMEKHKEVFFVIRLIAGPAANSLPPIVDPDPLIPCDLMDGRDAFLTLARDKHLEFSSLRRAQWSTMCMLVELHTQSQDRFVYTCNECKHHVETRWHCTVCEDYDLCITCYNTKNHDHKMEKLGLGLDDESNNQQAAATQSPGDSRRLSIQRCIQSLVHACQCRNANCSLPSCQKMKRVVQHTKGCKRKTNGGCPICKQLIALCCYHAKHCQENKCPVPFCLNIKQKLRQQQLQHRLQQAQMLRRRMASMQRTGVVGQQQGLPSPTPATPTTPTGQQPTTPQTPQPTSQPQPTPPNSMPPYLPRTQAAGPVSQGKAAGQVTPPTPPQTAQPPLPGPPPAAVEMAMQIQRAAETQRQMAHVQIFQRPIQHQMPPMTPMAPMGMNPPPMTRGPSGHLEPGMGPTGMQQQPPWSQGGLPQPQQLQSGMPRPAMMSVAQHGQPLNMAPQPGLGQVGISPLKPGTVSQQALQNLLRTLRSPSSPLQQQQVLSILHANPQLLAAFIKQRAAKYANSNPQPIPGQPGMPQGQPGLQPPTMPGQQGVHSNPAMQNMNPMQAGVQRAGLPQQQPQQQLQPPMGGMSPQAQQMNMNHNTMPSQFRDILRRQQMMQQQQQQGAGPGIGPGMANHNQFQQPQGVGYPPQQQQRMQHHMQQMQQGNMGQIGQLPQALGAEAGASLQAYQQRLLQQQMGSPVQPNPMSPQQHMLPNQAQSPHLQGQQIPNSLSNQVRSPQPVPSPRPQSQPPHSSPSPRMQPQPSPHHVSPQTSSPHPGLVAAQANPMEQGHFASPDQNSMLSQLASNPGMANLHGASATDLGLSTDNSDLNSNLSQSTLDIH
UniProt P10215: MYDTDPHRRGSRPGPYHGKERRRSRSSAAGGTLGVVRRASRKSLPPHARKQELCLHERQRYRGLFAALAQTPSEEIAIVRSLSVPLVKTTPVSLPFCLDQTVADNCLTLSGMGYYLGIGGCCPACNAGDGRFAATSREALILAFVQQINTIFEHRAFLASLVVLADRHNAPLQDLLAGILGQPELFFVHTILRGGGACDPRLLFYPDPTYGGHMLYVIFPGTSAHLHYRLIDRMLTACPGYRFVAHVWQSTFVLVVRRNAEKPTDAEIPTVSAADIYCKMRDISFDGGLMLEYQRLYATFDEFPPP
UniProt Q14653: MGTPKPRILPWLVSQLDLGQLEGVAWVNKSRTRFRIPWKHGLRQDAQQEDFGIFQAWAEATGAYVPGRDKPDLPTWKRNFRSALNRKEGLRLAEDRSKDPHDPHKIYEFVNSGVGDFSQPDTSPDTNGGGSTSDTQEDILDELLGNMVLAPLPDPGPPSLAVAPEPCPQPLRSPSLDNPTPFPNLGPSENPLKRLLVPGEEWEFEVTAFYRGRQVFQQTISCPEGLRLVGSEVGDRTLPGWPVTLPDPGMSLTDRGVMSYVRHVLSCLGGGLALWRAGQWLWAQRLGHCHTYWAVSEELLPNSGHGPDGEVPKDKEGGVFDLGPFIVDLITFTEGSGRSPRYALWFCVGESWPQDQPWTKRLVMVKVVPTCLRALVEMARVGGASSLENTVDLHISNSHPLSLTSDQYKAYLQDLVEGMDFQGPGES
UniProt Q7Z434: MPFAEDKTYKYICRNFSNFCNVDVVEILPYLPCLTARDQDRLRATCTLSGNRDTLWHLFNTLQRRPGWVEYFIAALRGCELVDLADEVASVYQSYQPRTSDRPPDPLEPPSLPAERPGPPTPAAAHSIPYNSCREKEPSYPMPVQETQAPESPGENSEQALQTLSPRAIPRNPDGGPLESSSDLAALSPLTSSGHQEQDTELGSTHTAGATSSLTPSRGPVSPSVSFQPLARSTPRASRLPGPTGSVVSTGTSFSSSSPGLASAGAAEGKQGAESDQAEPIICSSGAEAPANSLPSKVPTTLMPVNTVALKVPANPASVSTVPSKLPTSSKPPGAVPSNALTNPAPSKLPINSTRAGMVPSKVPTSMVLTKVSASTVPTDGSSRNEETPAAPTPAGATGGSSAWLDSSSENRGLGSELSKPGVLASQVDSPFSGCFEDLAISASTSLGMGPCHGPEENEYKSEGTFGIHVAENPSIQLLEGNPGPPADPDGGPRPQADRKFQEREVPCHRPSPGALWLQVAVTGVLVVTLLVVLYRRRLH

The target in the next experiment is T2, TBK1-Myc (UniProt Q9UHD2).
T2 sequence: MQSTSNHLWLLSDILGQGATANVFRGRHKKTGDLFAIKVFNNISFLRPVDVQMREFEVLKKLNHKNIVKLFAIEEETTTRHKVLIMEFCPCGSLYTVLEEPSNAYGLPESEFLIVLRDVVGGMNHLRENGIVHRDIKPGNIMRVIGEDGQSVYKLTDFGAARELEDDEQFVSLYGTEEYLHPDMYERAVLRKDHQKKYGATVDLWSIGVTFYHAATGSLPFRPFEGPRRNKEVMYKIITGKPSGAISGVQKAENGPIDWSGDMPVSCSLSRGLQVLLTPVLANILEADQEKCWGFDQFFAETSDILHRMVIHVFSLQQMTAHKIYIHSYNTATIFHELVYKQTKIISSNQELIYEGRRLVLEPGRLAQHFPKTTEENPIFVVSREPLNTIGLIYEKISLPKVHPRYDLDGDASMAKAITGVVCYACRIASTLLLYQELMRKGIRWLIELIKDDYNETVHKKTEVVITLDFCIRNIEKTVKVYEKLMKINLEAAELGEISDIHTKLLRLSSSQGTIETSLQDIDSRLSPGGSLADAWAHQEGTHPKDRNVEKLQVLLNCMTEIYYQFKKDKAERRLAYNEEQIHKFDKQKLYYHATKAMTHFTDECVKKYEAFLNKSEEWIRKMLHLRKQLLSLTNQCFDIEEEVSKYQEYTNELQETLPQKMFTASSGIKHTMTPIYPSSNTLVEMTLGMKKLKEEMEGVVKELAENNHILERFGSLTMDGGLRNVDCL

Experiment [1] deals with HSV-1 UL31-HA (herpes simplex virus 1 (F strain)) (UniProt P10215).
The target of the next experiment is T3, IKKi-Myc (UniProt Q14164).
T3 sequence: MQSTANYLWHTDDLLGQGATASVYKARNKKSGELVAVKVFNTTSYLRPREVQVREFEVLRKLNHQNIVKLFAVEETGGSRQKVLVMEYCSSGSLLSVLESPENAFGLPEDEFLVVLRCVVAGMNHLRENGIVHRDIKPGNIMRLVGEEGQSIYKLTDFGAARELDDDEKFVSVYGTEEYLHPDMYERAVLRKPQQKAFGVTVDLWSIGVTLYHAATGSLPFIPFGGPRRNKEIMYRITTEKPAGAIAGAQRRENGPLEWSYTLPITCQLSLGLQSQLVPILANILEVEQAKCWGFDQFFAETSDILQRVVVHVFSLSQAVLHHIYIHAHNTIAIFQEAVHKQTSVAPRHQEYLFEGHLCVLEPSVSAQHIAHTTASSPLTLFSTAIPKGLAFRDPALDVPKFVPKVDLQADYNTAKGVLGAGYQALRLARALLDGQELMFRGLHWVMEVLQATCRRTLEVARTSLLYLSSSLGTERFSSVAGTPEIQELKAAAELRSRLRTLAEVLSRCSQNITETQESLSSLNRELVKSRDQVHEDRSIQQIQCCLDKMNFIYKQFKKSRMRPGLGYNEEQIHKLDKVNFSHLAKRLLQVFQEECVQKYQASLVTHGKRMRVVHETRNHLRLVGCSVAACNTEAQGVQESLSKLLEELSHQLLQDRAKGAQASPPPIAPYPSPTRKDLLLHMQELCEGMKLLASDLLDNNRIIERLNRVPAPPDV

Here are results for 9 molecules from article PMC8865407.

Results are given in words; binding and its absence hold for the method and conditions named. Binding seen in cells or lysates may run through a third protein. Some binding calls cover weakened binding; strength is not graded here. For part of these data: Sequences can lack the tags named with a protein.

For the molecule “HSV-1 UL31-HA (from UniProt P10215 1-306)”, the binding entry with CBP-Flag, with p300-Myc, in the experiment with IRF7-Flag and with TBK1-Myc was “binds” each time.
Take IRF3-Flag (from UniProt Q14653 1-427): the binding entry with p300-Myc is recorded as “binds”.
On to MAVS-Flag (from UniProt Q7Z434 1-540), for which the binding entry in experiment [1] was “no binding”.
Same read-out and setting: under “endogenous IRF3 (from UniProt Q14653 1-427)” stands “binds”.

B1: endogenous TBK1 (enzyme, UniProt Q9UHD2 1-729)
chain: MQSTSNHLWLLSDILGQGATANVFRGRHKKTGDLFAIKVFNNISFLRPVDVQMREFEVLKKLNHKNIVKLFAIEEETTTRHKVLIMEFCPCGSLYTVLEEPSNAYGLPESEFLIVLRDVVGGMNHLRENGIVHRDIKPGNIMRVIGEDGQSVYKLTDFGAARELEDDEQFVSLYGTEEYLHPDMYERAVLRKDHQKKYGATVDLWSIGVTFYHAATGSLPFRPFEGPRRNKEVMYKIITGKPSGAISGVQKAENGPIDWSGDMPVSCSLSRGLQVLLTPVLANILEADQEKCWGFDQFFAETSDILHRMVIHVFSLQQMTAHKIYIHSYNTATIFHELVYKQTKIISSNQELIYEGRRLVLEPGRLAQHFPKTTEENPIFVVSREPLNTIGLIYEKISLPKVHPRYDLDGDASMAKAITGVVCYACRIASTLLLYQELMRKGIRWLIELIKDDYNETVHKKTEVVITLDFCIRNIEKTVKVYEKLMKINLEAAELGEISDIHTKLLRLSSSQGTIETSLQDIDSRLSPGGSLADAWAHQEGTHPKDRNVEKLQVLLNCMTEIYYQFKKDKAERRLAYNEEQIHKFDKQKLYYHATKAMTHFTDECVKKYEAFLNKSEEWIRKMLHLRKQLLSLTNQCFDIEEEVSKYQEYTNELQETLPQKMFTASSGIKHTMTPIYPSSNTLVEMTLGMKKLKEEMEGVVKELAENNHILERFGSLTMDGGLRNVDCL
As to B1, the binding result in experiment [1] is recorded as “binds”.

B2: TBK1-Flag (enzyme, UniProt Q9UHD2 1-729)
chain: MQSTSNHLWLLSDILGQGATANVFRGRHKKTGDLFAIKVFNNISFLRPVDVQMREFEVLKKLNHKNIVKLFAIEEETTTRHKVLIMEFCPCGSLYTVLEEPSNAYGLPESEFLIVLRDVVGGMNHLRENGIVHRDIKPGNIMRVIGEDGQSVYKLTDFGAARELEDDEQFVSLYGTEEYLHPDMYERAVLRKDHQKKYGATVDLWSIGVTFYHAATGSLPFRPFEGPRRNKEVMYKIITGKPSGAISGVQKAENGPIDWSGDMPVSCSLSRGLQVLLTPVLANILEADQEKCWGFDQFFAETSDILHRMVIHVFSLQQMTAHKIYIHSYNTATIFHELVYKQTKIISSNQELIYEGRRLVLEPGRLAQHFPKTTEENPIFVVSREPLNTIGLIYEKISLPKVHPRYDLDGDASMAKAITGVVCYACRIASTLLLYQELMRKGIRWLIELIKDDYNETVHKKTEVVITLDFCIRNIEKTVKVYEKLMKINLEAAELGEISDIHTKLLRLSSSQGTIETSLQDIDSRLSPGGSLADAWAHQEGTHPKDRNVEKLQVLLNCMTEIYYQFKKDKAERRLAYNEEQIHKFDKQKLYYHATKAMTHFTDECVKKYEAFLNKSEEWIRKMLHLRKQLLSLTNQCFDIEEEVSKYQEYTNELQETLPQKMFTASSGIKHTMTPIYPSSNTLVEMTLGMKKLKEEMEGVVKELAENNHILERFGSLTMDGGLRNVDCL
In the case of B2, the binding entry with IKKi-Myc was “binds”.

B3: IKKi-Flag (enzyme, UniProt Q14164 1-716)
chain: MQSTANYLWHTDDLLGQGATASVYKARNKKSGELVAVKVFNTTSYLRPREVQVREFEVLRKLNHQNIVKLFAVEETGGSRQKVLVMEYCSSGSLLSVLESPENAFGLPEDEFLVVLRCVVAGMNHLRENGIVHRDIKPGNIMRLVGEEGQSIYKLTDFGAARELDDDEKFVSVYGTEEYLHPDMYERAVLRKPQQKAFGVTVDLWSIGVTLYHAATGSLPFIPFGGPRRNKEIMYRITTEKPAGAIAGAQRRENGPLEWSYTLPITCQLSLGLQSQLVPILANILEVEQAKCWGFDQFFAETSDILQRVVVHVFSLSQAVLHHIYIHAHNTIAIFQEAVHKQTSVAPRHQEYLFEGHLCVLEPSVSAQHIAHTTASSPLTLFSTAIPKGLAFRDPALDVPKFVPKVDLQADYNTAKGVLGAGYQALRLARALLDGQELMFRGLHWVMEVLQATCRRTLEVARTSLLYLSSSLGTERFSSVAGTPEIQELKAAAELRSRLRTLAEVLSRCSQNITETQESLSSLNRELVKSRDQVHEDRSIQQIQCCLDKMNFIYKQFKKSRMRPGLGYNEEQIHKLDKVNFSHLAKRLLQVFQEECVQKYQASLVTHGKRMRVVHETRNHLRLVGCSVAACNTEAQGVQESLSKLLEELSHQLLQDRAKGAQASPPPIAPYPSPTRKDLLLHMQELCEGMKLLASDLLDNNRIIERLNRVPAPPDV
For B3, in experiment [1], the binding result is listed as “binds”.

B4: endogenous IKKi (enzyme, UniProt Q14164 1-716)
chain: MQSTANYLWHTDDLLGQGATASVYKARNKKSGELVAVKVFNTTSYLRPREVQVREFEVLRKLNHQNIVKLFAVEETGGSRQKVLVMEYCSSGSLLSVLESPENAFGLPEDEFLVVLRCVVAGMNHLRENGIVHRDIKPGNIMRLVGEEGQSIYKLTDFGAARELDDDEKFVSVYGTEEYLHPDMYERAVLRKPQQKAFGVTVDLWSIGVTLYHAATGSLPFIPFGGPRRNKEIMYRITTEKPAGAIAGAQRRENGPLEWSYTLPITCQLSLGLQSQLVPILANILEVEQAKCWGFDQFFAETSDILQRVVVHVFSLSQAVLHHIYIHAHNTIAIFQEAVHKQTSVAPRHQEYLFEGHLCVLEPSVSAQHIAHTTASSPLTLFSTAIPKGLAFRDPALDVPKFVPKVDLQADYNTAKGVLGAGYQALRLARALLDGQELMFRGLHWVMEVLQATCRRTLEVARTSLLYLSSSLGTERFSSVAGTPEIQELKAAAELRSRLRTLAEVLSRCSQNITETQESLSSLNRELVKSRDQVHEDRSIQQIQCCLDKMNFIYKQFKKSRMRPGLGYNEEQIHKLDKVNFSHLAKRLLQVFQEECVQKYQASLVTHGKRMRVVHETRNHLRLVGCSVAACNTEAQGVQESLSKLLEELSHQLLQDRAKGAQASPPPIAPYPSPTRKDLLLHMQELCEGMKLLASDLLDNNRIIERLNRVPAPPDV
For the molecule B4, the binding result in experiment [1] was “binds”.

B5: RIG-I-Flag (protein, UniProt O95786 1-925)
chain: MTTEQRRSLQAFQDYIRKTLDPTYILSYMAPWFREEEVQYIQAEKNNKGPMEAATLFLKFLLELQEEGWFRGFLDALDHAGYSGLYEAIESWDFKKIEKLEEYRLLLKRLQPEFKTRIIPTDIISDLSECLINQECEEILQICSTKGMMAGAEKLVECLLRSDKENWPKTLKLALEKERNKFSELWIVEKGIKDVETEDLEDKMETSDIQIFYQEDPECQNLSENSCPPSEVSDTNLYSPFKPRNYQLELALPAMKGKNTIICAPTGCGKTFVSLLICEHHLKKFPQGQKGKVVFFANQIPVYEQQKSVFSKYFERHGYRVTGISGATAENVPVEQIVENNDIIILTPQILVNNLKKGTIPSLSIFTLMIFDECHNTSKQHPYNMIMFNYLDQKLGGSSGPLPQVIGLTASVGVGDAKNTDEALDYICKLCASLDASVIATVKHNLEELEQVVYKPQKFFRKVESRISDKFKYIIAQLMRDTESLAKRICKDLENLSQIQNREFGTQKYEQWIVTVQKACMVFQMPDKDEESRICKALFLYTSHLRKYNDALIISEHARMKDALDYLKDFFSNVRAAGFDEIEQDLTQRFEEKLQELESVSRDPSNENPKLEDLCFILQEEYHLNPETITILFVKTRALVDALKNWIEGNPKLSFLKPGILTGRGKTNQNTGMTLPAQKCILDAFKASGDHNILIATSVADEGIDIAQCNLVILYEYVGNVIKMIQTRGRGRARGSKCFLLTSNAGVIEKEQINMYKEKMMNDSILRLQTWDEAVFREKILHIQTHEKFIRDSQEKPKPVPDKENKKLLCRKCKALACYTADVRVIEECHYTVLGDAFKECFVSRPHPKPKQFSSFEKRAKIFCARQNCSHDWGIHVKYKTFEIPVIKIESFVVEDIATGVQTLYSKWKDFHFEKIPFDPAEMSK
Consider B5, for which the binding entry in experiment [1] is “no binding”.
